Results reported in PubChem BioAssay AID1865 (National Center for Advancing Translational Sciences (NCATS), 2009).
Screen size: about 280,000 compounds; about 540 (0.19%) were called active. Inconclusive means that the source gave no clear call. Such entries were picked first, then a sample of the others. The call rests on the fitted dose curve; in most records, active means well fitted activation curve with a large enough effect; inconclusive means small, poorly fitted or top-dose-only effect; inactive means flat fitted curve, though single readings scatter. A potency beside an inconclusive call is a rough fit, not a confirmed value.
Potency means the concentration at half of the fitted maximal effect; tags describe the fitted curve by direction and shape.

Assay: Quantitative High-Throughput Screen for Regulators of Epigenetic Control; further: nearly all actives have a fitted effect of over 60% in size
Settings: murine LDR cells, GFP reporter derepression, 30 h; series mostly up to 53.9 µM
How it was run: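 Murine LDR cells bearing a silenced CMV-driven GFP reporter were exposed to compound for 30 h at 37 C. After PBS washes, GFP-positive cells (20-120 um objects) counted by laser-scanning microplate cytometry.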
With `O[C@H]1[C@H]2c3cc4c(cc3CN3CCC(=C[C@@H]1O)[C@H]23)OCO4` the Potency was inconclusive: 3.16 µM [activator, full curve].
In the case of `Cc1ccc(-n2nnnc2C(=Cc2ccc(N(C)C)cc2)c2nnnn2-c2ccc(C)cc2)cc1`, the Potency is reported as inconclusive: 35.5 µM [activator, single point].
With `Cc1nn(C)cc1/C=N/NC(=S)Nc1ccccc1` the Potency was active: 3.98 µM.
For `N#Cc1c(-c2ccccc2)cc(C2CC2)nc1SCC(=O)c1cccs1`, the Potency was inconclusive: 25.1 µM [activator, single point].
In the case of `COCCN=c1scc(-c2ccc3c(c2)NC(=O)CO3)n1/N=C(\C)c1ccc(O)cc1`, the Potency is reported as inconclusive: 25.1 µM [activator, single point].
With `COc1ccc(S(=O)(=O)N2CCN(c3ccccc3OC)CC2)cc1-c1noc(C)n1` the Potency was inconclusive: 31.6 µM [activator, single point].
For `Cc1cn2c(=O)cc(COC(=O)c3cccc(NC(=O)c4ccccc4C)c3)nc2s1`, the Potency was inconclusive: 17.8 µM [activator, single point].
With `Cc1nc2ccccn2c1C(=O)NC1CCCc2ccccc21` (configuration not stated) the Potency was “inactive”.
With `CCOC(=O)c1cc(NC(=O)c2ccccc2)c(=O)n2c1oc1ccccc12` the Potency was inconclusive: 35.5 µM [activator, single point].
With `COc1cc2c(cc1OC)CN(c1ccc(-c3ccccc3OC)nn1)CC2` the Potency was inconclusive: 28.2 µM [activator, single point].
With `Cc1ccc(Cl)cc1NC(=S)N(Cc1ccco1)C(C)c1cccs1` (configuration not stated) the Potency was “inactive”.
For `CC(=O)Nc1ccc(N(C(=O)Cn2nnc3ccccc32)C(C(=O)NC2CCCC2)c2ccc(O)c(O)c2)cc1` (configuration not stated), the Potency was “inactive”.
With `Cc1ccc(CO/N=C\Cc2snc(Sc3ncc(C(F)(F)F)cc3Cl)c2C#N)cc1` the Potency was inconclusive: 20 µM [activator, single point].
For `CCCN(CCC)S(=O)(=O)c1ccc(C(=O)Nc2sc3c(c2C(=O)OC)CCN(CC)C3)cc1`, the Potency was inconclusive: 11.2 µM [activator, partial curve].
In the case of `Cc1cccc(NC2=C(Cl)C(=O)OC2OC(=O)c2ccco2)c1` (configuration not stated), the Potency is reported as inconclusive: 31.6 µM [activator, single point].
In the case of `COc1cc(CN2CCCC(C(=O)c3ccc4c5c(cccc35)CC4)C2)cc(OC)c1O` (configuration not stated), the Potency is reported as inconclusive: 17.8 µM [activator, single point].
For `CCCC[C@H]1C[C@@H]1[C@@H]1N(P(=O)(c2ccccc2)c2ccccc2)C[C@@](O)(c2ccccc2)CC12CC2`, the Potency was inconclusive: 2.24 µM [activator, partial curve].
